# Data reported in the BET-seq Pho4 binding data (Le et al. 2018).
# The list shows a part of the results. Values were computed here from the reads of four pooled replicates and scatter widely.
# Target: T1, Pho4 (S. cerevisiae) (UniProt P07270)
# T1 sequence: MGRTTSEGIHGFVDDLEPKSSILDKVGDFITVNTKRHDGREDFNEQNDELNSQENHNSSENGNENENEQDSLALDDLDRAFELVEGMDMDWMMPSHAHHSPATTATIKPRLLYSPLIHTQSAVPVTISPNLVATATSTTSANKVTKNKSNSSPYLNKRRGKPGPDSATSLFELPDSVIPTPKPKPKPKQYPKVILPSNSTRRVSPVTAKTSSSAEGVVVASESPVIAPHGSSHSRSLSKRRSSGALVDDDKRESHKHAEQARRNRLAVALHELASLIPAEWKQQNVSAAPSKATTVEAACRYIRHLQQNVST
# Test: relative binding free energy (BET-seq); higher = weaker binding
# Settings: reference: library average
row,Sequence,relative binding free energy [kcal/mol]
1,GATGGCACGTGACGGT,0.14
2,GGTATCACGTGATTCT,0.2
3,ACATTCACGTGTTTGG,0.24
4,ATTTGCACGTGGCGTT,-0.02
5,TTCTTCACGTGTATTG,0.19
6,GCAGGCACGTGTGGTA,0.03
7,CTGTGCACGTGGTGTT,-0.14
8,TTGTTCACGTGCCGGG,0.26
9,TAGGACACGTGAGATT,0.18
10,TAGTGCACGTGCGGTC,-0.01
11,GCTTGCACGTGGATTG,0.03
12,CGTTTCACGTGTAGTT,0.33
13,GGAGGCACGTGAGTGA,0.24
14,AGTTTCACGTGTTGCA,0.4
15,TGTCACACGTGTAGGA,0.09
16,GTTTCCACGTGGAGTT,0.25
17,TTGGTCACGTGTCATG,0.11
18,GTGGGCACGTGTTCTT,-0.07
19,ACAGTCACGTGGAGAG,0.12
20,ATTTGCACGTGGGAAA,-0.02
21,ATCTGCACGTGGGAGT,0

row,Sequence,relative binding free energy [kcal/mol]
1,CTAGACACGTGAGGGG,0.13
2,TTTGTCACGTGATCTT,0.31
3,GTGTGCACGTGGTGCA,-0.03
4,TAAGACACGTGGGGGA,-0.07
5,TGGGACACGTGGGTTG,-0.13
6,GTCTACACGTGTAGTT,0.12
7,AAGATCACGTGGGCTG,0.04
8,TTACGCACGTGTAGTT,-0.01
9,ATGTACACGTGTTTGT,0.1
10,TTTTACACGTGGTCAA,0.02
11,ATCTACACGTGAATGT,0.48
12,ATGCGCACGTGGTGCT,-0.2
13,GGGTTCACGTGAAAGA,0.65
14,ATGAGCACGTGTCTGG,-0.1
15,GTATTCACGTGGTAGG,0.13
16,TATAACACGTGTTGGC,0.13
17,CTTAACACGTGTTTTA,-0.06
18,CGGGTCACGTGTGTTG,0.14
19,GGGGTCACGTGGGATT,0.13
20,GCCGGCACGTGGGGTG,-0.21
21,AGTAGCACGTGGGTAA,-0.2

row,Sequence,relative binding free energy [kcal/mol]
1,TAGCGCACGTGATTGT,-0.05
2,GGAGTCACGTGTAAGT,0.24
3,GGGCTCACGTGAGGGG,0.36
4,GGTATCACGTGGCGAG,0.2
5,TATTCCACGTGGGAGT,-0.03
6,TTGGACACGTGTGTGA,0.04
7,TGATTCACGTGTGTAT,0.24
8,GTTCGCACGTGGGGAG,0.01
9,CTTAACACGTGAAGTG,0.25
10,GGCATCACGTGGTTTG,0.2
11,TTTCTCACGTGCTGTT,0.24
12,GTTGGCACGTGAGAGT,0.2
13,TCATGCACGTGCGTGG,-0.12
14,GAATCCACGTGGGGGG,0.07
15,TTGGCCACGTGATAGT,0.23
16,GCGTGCACGTGTAGAG,0.14
17,TTTACCACGTGGCGGG,-0.1
18,GAACTCACGTGATGTT,0.54
19,TGGTCCACGTGTGGGA,0.07
20,GGTTTCACGTGGAGAC,0.37
21,CCTGGCACGTGGTGGA,-0.13
